Over roughly 33,000 sequences, “E-score (-0.5 to 0.5)” has its median near -0.041; the highest 2% begin near 0.37. This is one part of the list.
These sequences were tested against T1, Ecm22 (UniProt Q05958) (assay: PBM E-score (8-mer binding enrichment) (E-score (-0.5 to 0.5)); higher = stronger / more preferred TF binding; most listed sequences are background and not binding sites). Settings: protein concentration: 200 nM; construct: GST-full length.
T1 sequence: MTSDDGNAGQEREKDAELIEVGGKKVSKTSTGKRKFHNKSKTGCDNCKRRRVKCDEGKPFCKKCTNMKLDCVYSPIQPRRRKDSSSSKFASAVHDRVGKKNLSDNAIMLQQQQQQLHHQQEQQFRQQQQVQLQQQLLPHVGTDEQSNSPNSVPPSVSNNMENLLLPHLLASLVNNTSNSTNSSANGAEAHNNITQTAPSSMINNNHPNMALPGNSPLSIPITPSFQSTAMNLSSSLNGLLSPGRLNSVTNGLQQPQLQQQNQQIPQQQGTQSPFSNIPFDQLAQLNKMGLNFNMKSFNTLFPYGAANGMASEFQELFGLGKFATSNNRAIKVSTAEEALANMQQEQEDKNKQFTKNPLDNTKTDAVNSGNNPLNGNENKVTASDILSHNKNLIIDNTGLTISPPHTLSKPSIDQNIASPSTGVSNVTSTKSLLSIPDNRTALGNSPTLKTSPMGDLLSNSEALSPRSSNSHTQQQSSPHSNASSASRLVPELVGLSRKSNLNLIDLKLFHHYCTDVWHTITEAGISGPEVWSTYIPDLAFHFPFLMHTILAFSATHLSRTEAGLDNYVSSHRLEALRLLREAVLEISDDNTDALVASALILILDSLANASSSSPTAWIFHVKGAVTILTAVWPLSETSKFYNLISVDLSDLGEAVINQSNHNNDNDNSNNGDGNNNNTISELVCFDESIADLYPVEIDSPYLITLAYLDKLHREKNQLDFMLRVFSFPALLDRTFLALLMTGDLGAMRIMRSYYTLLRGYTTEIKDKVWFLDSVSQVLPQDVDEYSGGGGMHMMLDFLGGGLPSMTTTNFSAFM
Method in brief: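 Universal all-10-mer Agilent arrays, fresh or stripped once, were converted to double-stranded form by primer extension. GST-tagged yeast transcription factors from PURExpress in vitro transcription/translation, full-length or DNA-binding domain only, were applied at about 100-200 nM and detected with fluorescent anti-GST. After masliner normalisation, the Universal PBM Analysis Suite scored each ungapped eight-base word together with its reverse complement by E-score.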

Row | Sequence | PBM E-score
1 | AAAATTGC | 0.221
2 | CATCGAGA | 0.0331
3 | CAACTTGC | -0.168
4 | GTGGGAGA | -0.0659
5 | CGACCGAG | 0.295
6 | ATGGTTCC | -0.0916
7 | CAATGGTG | -0.208
8 | AAAATGTC | 0.0937
9 | CGCGCACA | 0.0673
10 | AGCTCTGG | -0.206
11 | GTTTCAGA | -0.174
12 | GACGTACA | 0.211
13 | ACCCAAGA | -0.252
14 | AGAGAGTC | -0.168
15 | AGCGAGCC | 0.236
16 | CCGTCGGC | 0.0969
17 | CAACCCGG | -0.0773
18 | ATAGTAAA | 0.0815
19 | TGATCAAA | -0.0221
20 | GAAATAGC | -0.172
21 | AACCGCCA | -0.269
22 | CTGCGGCA | -0.216

Row | Sequence | PBM E-score
23 | CGTTACCC | 0.155
24 | CCAGTCAC | -0.272
25 | AACGCCTA | -0.0445
26 | ACACACTC | -0.0104
27 | CATGAATA | -0.127
28 | CATCGACA | -0.0336
29 | ATCACACA | -0.116
30 | AAGTGTGG | -0.184
31 | GGAGCGGA | 0.193
32 | AGGCCTGC | -0.18
33 | AGTCCTCG | 0.0271
34 | ACCCCGAG | -0.188
35 | CGGGAACG | 0.456
36 | ACTCCCTC | -0.184
37 | ACTGACGG | -0.239
38 | ACCATTGG | -0.152
39 | GACGCATA | 0.15
40 | ACGTCTAC | 0.00544
41 | CCAGAGCG | -0.225
42 | AAATCCCC | -0.161
43 | CTAACTAA | 0.00882
44 | ATGCTCGC | 0.235

Row | Sequence | PBM E-score
45 | AGCCTGAA | -0.206
46 | AACTTGGC | -0.12
47 | GTGGGCAA | -0.0984
48 | AAGTCGCC | -0.133
49 | CAGGCAAA | 0.0456
50 | GCGCTAAC | 0.0825
51 | ATCGGAAC | 0.288
52 | ACCCCACG | -0.308
53 | CCTGGACC | -0.0767
54 | GAGATCCA | -0.117
55 | GACAATGC | -0.01
56 | CGCGATCC | 0.0945
57 | TAGTTATA | 0.0456
58 | ACACGAAA | 0.224
59 | ACGGTGCG | 0.314
60 | GTCAATTA | 0.0655
61 | GGCAACAA | -0.0616
62 | AGAGATTC | -0.0312
63 | AGATCTGG | -0.324
64 | AATTCCGA | 0.199
65 | GTCACTGA | -0.0926
66 | CATCTTCG | 0.153

Row | Sequence | PBM E-score
67 | ATTTCACA | -0.107
68 | TATTGTCA | -0.169
69 | ATTCTGAG | -0.235
70 | ACATGCCT | -0.0959
71 | ACCGCCGA | -0.0535
72 | CTTACAAA | 0.133
73 | GTGCGAAA | 0.151
74 | GTGGAAAA | 0.0147
75 | AGACCACG | -0.221
76 | AAACAAGA | 0.152
77 | AGGACTTC | -0.167
78 | AGCAGCGC | -0.113
79 | GGTGAGTA | -0.114
80 | CAAAACCC | -0.0641
81 | AGTAGCAA | 0.0359
82 | AGACCCAA | -0.197
83 | CGCGCCAC | -0.114
84 | CACTCATC | -0.0775
85 | CCAGCGTC | -0.145
86 | TCATCAGA | -0.0979
